# Test results: the supplement of paper PMC8728848
# Some of the results follow.
# B1: mCC1-Hexahis-Precomplexed (Mus musculus), P31809 (protein)
# chain: MELASAHLHKGQVPWGGLLLTASLLASWSPATTAEVTIEAVPPQVAEDNNVLLLVHNLPLALGAFAWYKGNTTAIDKEIARFVPNSNMNFTGQAYSGREIIYSNGSLLFQMITMKDMGVYTLDMTDENYRRTQATVRFHVHPILLKPNITSNNSNPVEGDDSVSLTCDSYTDPDNINYLWSRNGESLSEGDRLKLSEGNRTLTLLNVTRNDTGPYVCETRNPVSVNRSDPFSLNIIYGPDTPIISPSDIYLHPGSNLNLSCHAASNPPAQYFWLINEKPHASSQELFIPNITTNNSGTYTCFVNNSVTGLSRTTVKNITVLEPVTQPFLQVTNTTVKELDSVTLTCLSNDIGANIQWLFNSQSLQLTERMTLSQNNSILRIDPIKREDAGEYQCEISNPVSVRRSNSIKLDIIFDPTQGGLSDGHHHHHH
# How the values were obtained:
# Experiment in all cases: glycan array binding signal (z-score within array); higher = stronger binding
# Details in all cases: glycan notation: IUPAC condensed, linker removed
# [1] = molecular target: GlcNAc(b1-3)Gal(b1-4)GlcNAc(b1-3)Gal(b1-4)GlcNAc(b1-3)GalNAc
# Outline: (§1)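 Negative Z-scores can be read as non-binding. The Z-score is calculated within each array and then averaged across arrays of one protein sequence at different concentrations or buffers and across linkers. Arrays, 3228 in all, were curated from the Consortium for Functional Glycomics database and kept only where the protein sequence was available.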
# [2] = molecular target: GlcNAc(b1-3)Gal(b1-4)GlcNAc(b1-3)GalNAc
# Outline: as §1
# [3] = molecular target: GlcNAc(b1-3)Gal(b1-4)GlcNAc(b1-3)[GlcNAc(b1-3)Gal(b1-4)GlcNAc(b1-3)]GalNAc
# Outline: as §1
# [4] = molecular target: GlcNAc(b1-3)Gal(b1-4)GlcNAc(b1-6)[Gal(b1-3)]GalNAc
# Outline: as §1
# [5] = molecular target: GlcNAc(b1-3)Gal(b1-4)GlcNAc(b1-6)[GlcNAc(b1-3)Gal(b1-3)]GalNAc
# Outline: as §1
# [6] = molecular target: GlcNAc(b1-3)Gal(b1-4)GlcNAc(b1-6)[GlcNAc(b1-3)]Gal(b1-4)GlcNAc
# Outline: as §1
# GlcNAc(b1-3)GalNAc = molecular target: GlcNAc(b1-3)GalNAc
# Outline: as §1
# GlcNAc(b1-3)Man = molecular target: GlcNAc(b1-3)Man
# Outline: as §1
# [7] = molecular target: GlcNAc(b1-3)[GlcNAc(b1-4)][GlcNAc(b1-6)]GlcNAc
# Outline: as §1
# [8] = molecular target: GlcNAc(b1-3)[GlcNAc(b1-6)]Gal(b1-4)GlcNAc
# Outline: as §1
# [9] = molecular target: GlcNAc(b1-3)[GlcNAc(b1-6)]GalNAc
# Outline: as §1
# [10] = molecular target: GlcNAc(b1-4)Gal(b1-4)GlcNAc
# Outline: as §1
# GlcNAc(b1-4)GlcNAc = molecular target: GlcNAc(b1-4)GlcNAc
# Outline: as §1
# [11] = molecular target: GlcNAc(b1-4)GlcNAc(b1-4)GlcNAc
# Outline: as §1
# [12] = molecular target: GlcNAc(b1-4)GlcNAc(b1-4)GlcNAc(b1-4)GlcNAc(b1-4)GlcNAc
# Outline: as §1
# [13] = molecular target: GlcNAc(b1-4)GlcNAc(b1-4)GlcNAc(b1-4)GlcNAc(b1-4)GlcNAc(b1-4)GlcNAc
# Outline: as §1
# [14] = molecular target: GlcNAc(b1-4)[GlcNAc(b1-6)]GalNAc
# Outline: as §1
# [15] = molecular target: GlcNAc(b1-6)Gal(b1-4)GlcNAc
# Outline: as §1
# GlcNAc(b1-6)GalNAc = molecular target: GlcNAc(b1-6)GalNAc
# Outline: as §1
# [16] = molecular target: GlcNAc6S(b1-3)Gal(b1-4)GlcNAc
# Outline: as §1
# Kdn(a2-3)Gal(b1-3)GalNAc = molecular target: Kdn(a2-3)Gal(b1-3)GalNAc
# Outline: as §1
# Kdn(a2-3)Gal(b1-3)GlcNAc = molecular target: Kdn(a2-3)Gal(b1-3)GlcNAc
# Outline: as §1
# Kdn(a2-3)Gal(b1-4)Glc = molecular target: Kdn(a2-3)Gal(b1-4)Glc
# Outline: as §1
# Kdn(a2-3)Gal(b1-4)GlcNAc = molecular target: Kdn(a2-3)Gal(b1-4)GlcNAc
# Outline: as §1
# [17] = molecular target: Kdn(a2-3)Gal(b1-4)[Fuc(a1-3)]GlcNAc
# Outline: as §1
# Kdn(a2-6)Gal(b1-4)GlcNAc = molecular target: Kdn(a2-6)Gal(b1-4)GlcNAc
# Outline: as §1
# [18] = molecular target: Man(a1-2)Man(a1-2)Man(a1-3)Man
# Outline: as §1
# [19] = molecular target: Man(a1-2)Man(a1-2)Man(a1-6)[Man(a1-3)]Man
# Outline: as §1
# Man(a1-2)Man(a1-3)Man = molecular target: Man(a1-2)Man(a1-3)Man
# Outline: as §1
# [20] = molecular target: Man(a1-2)Man(a1-3)[Man(a1-2)Man(a1-6)]Man
# Outline: as §1
# [21] = molecular target: Man(a1-2)Man(a1-3)[Man(a1-2)Man(a1-6)]Man(a1-6)[Man(a1-2)Man(a1-2)Man(a1-3)]Man
# Outline: as §1
# [22] = molecular target: Man(a1-2)Man(a1-3)[Man(a1-2)Man(a1-6)]Man(a1-6)[Man(a1-2)Man(a1-2)Man(a1-3)]Man(b1-4)GlcNAc(b1-4)GlcNAc
# Outline: as §1
# [23] = molecular target: Man(a1-2)Man(a1-3)[Man(a1-6)]Man(a1-6)[Man(a1-2)Man(a1-3)]Man(b1-4)GlcNAc(b1-4)GlcNAc
# Outline: as §1
# [24] = molecular target: Man(a1-2)Man(a1-6)[Man(a1-3)]Man(a1-6)[Man(a1-2)Man(a1-2)Man(a1-3)]Man
# Outline: as §1
# [25] = molecular target: Man(a1-2)Man(a1-6)[Man(a1-3)]Man(a1-6)[Man(a1-2)Man(a1-2)Man(a1-3)]Man(b1-4)GlcNAc(b1-4)GlcNAc
# Outline: as §1
# Man(a1-3)[Man(a1-6)]Man = molecular target: Man(a1-3)[Man(a1-6)]Man
# Outline: as §1
# [26] = molecular target: Man(a1-3)[Man(a1-6)]Man(a1-6)[Man(a1-2)Man(a1-3)]Man(b1-4)GlcNAc(b1-4)GlcNAc
# Outline: as §1
# [27] = molecular target: Man(a1-3)[Man(a1-6)]Man(a1-6)[Man(a1-3)]Man
# Outline: as §1
# [28] = molecular target: Man(a1-3)[Man(a1-6)]Man(a1-6)[Man(a1-3)]Man(b1-4)GlcNAc(b1-4)GlcNAc
# Outline: as §1
# [29] = molecular target: Man(a1-3)[Man(a1-6)]Man(b1-4)GlcNAc(b1-4)GlcNAc
# Outline: as §1
# [30] = molecular target: Man(a1-3)[Man(a1-6)]Man(b1-4)GlcNAc(b1-4)[Fuc(a1-6)]GlcNAc
# Outline: as §1
# Man(a1-6)Man = molecular target: Man(a1-6)Man
# Outline: as §1
# Man(b1-4)GlcNAc = molecular target: Man(b1-4)GlcNAc
# Outline: as §1
# MurNAc(b1-4)GlcNAc = molecular target: MurNAc(b1-4)GlcNAc
# Outline: as §1
# Neu5Ac(a2-3)Gal = molecular target: Neu5Ac(a2-3)Gal
# Outline: as §1
binder,measurement,setting,value
B1,glycan array binding signal (z-score),[1],0.066
same,glycan array binding signal (z-score),[2],-0.199
same,glycan array binding signal (z-score),[3],-0.226
same,glycan array binding signal (z-score),[4],-0.27
same,glycan array binding signal (z-score),[5],-0.229
same,glycan array binding signal (z-score),[6],-0.193
same,glycan array binding signal (z-score),GlcNAc(b1-3)GalNAc,-0.207
same,glycan array binding signal (z-score),GlcNAc(b1-3)Man,-0.224
same,glycan array binding signal (z-score),[7],-0.3
same,glycan array binding signal (z-score),[8],-0.244
same,glycan array binding signal (z-score),[9],-0.144
same,glycan array binding signal (z-score),[10],-0.297
same,glycan array binding signal (z-score),GlcNAc(b1-4)GlcNAc,-0.215
same,glycan array binding signal (z-score),[11],-0.277
same,glycan array binding signal (z-score),[12],-0.234
same,glycan array binding signal (z-score),[13],-0.151
same,glycan array binding signal (z-score),[14],-0.246
same,glycan array binding signal (z-score),[15],-0.259
same,glycan array binding signal (z-score),GlcNAc(b1-6)GalNAc,-0.156
same,glycan array binding signal (z-score),[16],-0.239
same,glycan array binding signal (z-score),Kdn(a2-3)Gal(b1-3)GalNAc,-0.099
same,glycan array binding signal (z-score),Kdn(a2-3)Gal(b1-3)GlcNAc,-0.208
same,glycan array binding signal (z-score),Kdn(a2-3)Gal(b1-4)Glc,-0.18
same,glycan array binding signal (z-score),Kdn(a2-3)Gal(b1-4)GlcNAc,-0.232
same,glycan array binding signal (z-score),[17],-0.169
same,glycan array binding signal (z-score),Kdn(a2-6)Gal(b1-4)GlcNAc,-0.171
same,glycan array binding signal (z-score),[18],-0.262
same,glycan array binding signal (z-score),[19],-0.053
same,glycan array binding signal (z-score),Man(a1-2)Man(a1-3)Man,-0.152
same,glycan array binding signal (z-score),[20],-0.193
same,glycan array binding signal (z-score),[21],-0.115
same,glycan array binding signal (z-score),[22],1.13
same,glycan array binding signal (z-score),[23],-0.127
same,glycan array binding signal (z-score),[24],-0.146
same,glycan array binding signal (z-score),[25],-0.31
same,glycan array binding signal (z-score),Man(a1-3)[Man(a1-6)]Man,-0.219
same,glycan array binding signal (z-score),[26],4.18
same,glycan array binding signal (z-score),[27],-0.025
same,glycan array binding signal (z-score),[28],-0.197
same,glycan array binding signal (z-score),[29],0.283
same,glycan array binding signal (z-score),[30],0.151
same,glycan array binding signal (z-score),Man(a1-6)Man,-0.125
same,glycan array binding signal (z-score),Man(b1-4)GlcNAc,-0.218
same,glycan array binding signal (z-score),MurNAc(b1-4)GlcNAc,-0.257
same,glycan array binding signal (z-score),Neu5Ac(a2-3)Gal,-0.243
